# Test results published in article PMC2572687 (Biochemistry, 2008).
# B1: C99, the 99-residue transmembrane C-terminal domain of the human amyloid precursor protein (APP), wild type (domain or fragment)
# chain: not shown
# Biological target: the molecule itself
# Test: cross-linking
protein,measurement,value
B1,stoichiometry N,2
